Assay results as given in the supplement of paper PMC4967469.
IC50 is the fitted dose that halves viability relative to control wells, and lower means more sensitive; where the fit passes the top or lowest dose, that dose stands as a limit. AUC sums up the same curve from the lowest dose to the 256-fold higher top dose; it is 1 without any effect and falls as sensitivity rises. Where the top dose is marked as inferred, it is not printed in the source and was worked back from the curve model. For part of these data: Drugs with an entry number were screened twice under separate entries, and the two screens often disagree.

Tests used:
Assay in all cases: Viability of human cancer cell lines after 72 h of drug (GDSC screen)
AZD6482 = compound: Cc1cc([C@@H](C)Nc2ccccc2C(=O)O)c2nc(N3CCOCC3)cc(=O)n2c1 [AZD6482]
Description: (§1)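 Human cancer cell lines in 384-well plates, medium with 10% serum, drug for 72 h over a 256-fold dose range (nine 2-fold or five 4-fold steps up to the top dose). Adherent lines were fixed and stained with the nucleic acid dye Syto60, suspension lines read with resazurin; signal relative to control wells, capped at 0 and 100%. One two-parameter sigmoid per drug and line, fitted in a mixed model over all curves with the slope shared within a line.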

BMN-673 = compound: Cn1ncnc1[C@H]1c2n[nH]c(=O)c3cc(F)cc(c23)N[C@@H]1c1ccc(F)cc1 [BMN-673]; conditions: top dose 10 µM; top dose inferred
Description: as §1

MLN4924 = compound: NS(=O)(=O)OC[C@@H]1C[C@@H](n2ccc3c(N[C@H]4CCc5ccccc54)ncnc32)C[C@@H]1O [MLN4924]; conditions: top dose 1 µM; top dose inferred
Description: as §1

XMD11-85h = compound: COc1cc(C(=O)NC2CCN(C)CC2)ccc1Nc1ncc2c(n1)N(C1CCCC1)CCC(=O)N2C(C)C [XMD11-85h]; conditions: top dose 10 µM; top dose inferred
Description: as §1

[1] = top dose 5 µM, screen: GDSC drug entry 1066, top dose inferred
[2] = top dose 5.12 µM, screen: GDSC drug entry 156

Row | Cell Line | AUC (AZD6482; [1]) | IC50 (AZD6482; [1]) | AUC (AZD6482; [2]) | IC50 (AZD6482; [2]) | AUC (BMN-673) | IC50 (BMN-673) | AUC (MLN4924) | IC50 (MLN4924) | AUC (XMD11-85h) | IC50 (XMD11-85h)
1 | SW954 (urogenital system, adherent) | 0.974 | > 5 µM | 0.828 | 3.2 µM | 0.528 | 0.746 µM | 0.717 | 0.259 µM | – | –
2 | SW962 (urogenital system, adherent) | 0.65 | 0.907 µM | 0.938 | > 5.12 µM | 0.763 | 4.44 µM | 0.838 | 0.93 µM | – | –
3 | SW1088 (glioma, adherent) | 0.735 | 1.83 µM | 0.712 | 1.55 µM | 0.932 | > 10 µM | 0.965 | > 1 µM | – | –
4 | SW1116 (large intestine, adherent) | 0.954 | > 5 µM | – | – | 0.977 | > 10 µM | 0.984 | > 1 µM | – | –
5 | SW1417 (large intestine, adherent) | 0.93 | > 5 µM | 0.974 | > 5.12 µM | 0.973 | > 10 µM | 0.972 | > 1 µM | – | –
6 | SW1463 (large intestine, adherent) | 0.978 | > 5 µM | 0.953 | > 5.12 µM | 0.955 | > 10 µM | 0.963 | > 1 µM | – | –
7 | SW1990 (pancreas, adherent) | 0.977 | > 5 µM | 0.983 | > 5.12 µM | 0.873 | > 10 µM | 0.773 | 0.458 µM | – | –
8 | Saos-2 (osteosarcoma, adherent) | 0.923 | > 5 µM | 0.909 | > 5.12 µM | 0.882 | > 10 µM | 0.815 | 0.88 µM | – | –
9 | SiHa (cervix, adherent) | 0.986 | > 5 µM | 0.983 | > 5.12 µM | 0.906 | > 10 µM | 0.714 | 0.279 µM | – | –
10 | T98G (glioma, adherent) | 0.893 | > 5 µM | 0.844 | 3.26 µM | 0.747 | 2.99 µM | 0.887 | 0.974 µM | – | –
11 | T-T (oesophagus, adherent) | 0.813 | 2.68 µM | 0.905 | > 5.12 µM | 0.899 | > 10 µM | 0.515 | 0.0688 µM | – | –
12 | TC-YIK (cervix, suspension) | 0.974 | > 5 µM | – | – | 0.502 | 0.632 µM | 0.923 | > 1 µM | – | –
13 | TCCSUP (bladder, adherent) | 0.912 | > 5 µM | 0.833 | 3.97 µM | 0.911 | > 10 µM | 0.961 | > 1 µM | – | –
14 | TE-6 (oesophagus, adherent) | 0.897 | > 5 µM | 0.929 | > 5.12 µM | 0.984 | > 10 µM | 0.871 | > 1 µM | – | –
15 | TE-11 (oesophagus, adherent) | 0.924 | > 5 µM | 0.963 | > 5.12 µM | 0.822 | 5.17 µM | 0.851 | 0.664 µM | – | –
16 | TE-15 (oesophagus, suspension) | 0.937 | > 5 µM | 0.814 | 3.24 µM | 0.983 | > 10 µM | 0.981 | > 1 µM | – | –

Row | Cell Line | AUC (AZD6482; [1]) | IC50 (AZD6482; [1]) | AUC (AZD6482; [2]) | IC50 (AZD6482; [2]) | AUC (BMN-673) | IC50 (BMN-673) | AUC (MLN4924) | IC50 (MLN4924) | AUC (XMD11-85h) | IC50 (XMD11-85h)
17 | TGBC11TKB (stomach, adherent) | 0.992 | > 5 µM | 0.992 | > 5.12 µM | 0.972 | > 10 µM | 0.943 | > 1 µM | – | –
18 | TGBC24TKB (biliary tract, adherent) | 0.91 | > 5 µM | 0.958 | > 5.12 µM | 0.982 | > 10 µM | 0.979 | > 1 µM | – | –
19 | U-2-OS (osteosarcoma, adherent) | 0.876 | > 5 µM | 0.962 | > 5.12 µM | – | – | – | – | 0.976 | > 10 µM
20 | U-87-MG (glioma, adherent) | – | – | 0.901 | > 5.12 µM | 0.714 | 2.83 µM | 0.814 | 0.666 µM | – | –
21 | U-118-MG (glioma, adherent) | 0.769 | 2.17 µM | 0.936 | > 5.12 µM | 0.902 | > 10 µM | 0.902 | > 1 µM | – | –
22 | U-698-M (B-cell leukaemia, suspension) | 0.975 | > 5 µM | 0.983 | > 5.12 µM | 0.986 | > 10 µM | 0.986 | > 1 µM | – | –
23 | UACC-257 (melanoma, adherent) | 0.911 | > 5 µM | 0.919 | > 5.12 µM | 0.965 | > 10 µM | 0.942 | > 1 µM | – | –
24 | UM-UC-3 (bladder, adherent) | 0.883 | 4.77 µM | 0.882 | 4.86 µM | 0.723 | 2.56 µM | 0.575 | 0.0991 µM | – | –
25 | UMC-11 (lung carcinoid, adherent) | 0.989 | > 5 µM | 0.986 | > 5.12 µM | 0.976 | > 10 µM | 0.958 | > 1 µM | – | –
26 | UWB1.289 (ovary, adherent) | 0.899 | > 5 µM | – | – | – | – | – | – | 0.97 | > 10 µM
27 | WM793B (melanoma, adherent) | 0.77 | 2.11 µM | 0.409 | 0.176 µM | 0.69 | 2.27 µM | 0.66 | 0.183 µM | – | –
28 | WSU-NHL (lymphoid neoplasm, suspension) | 0.64 | 0.724 µM | 0.945 | > 5.12 µM | 0.934 | > 10 µM | 0.696 | 0.205 µM | – | –
29 | YAPC (pancreas, adherent) | 0.977 | > 5 µM | 0.96 | > 5.12 µM | 0.92 | > 10 µM | 0.867 | > 1 µM | – | –
30 | YKG-1 (glioma, adherent) | 0.9 | > 5 µM | 0.896 | > 5.12 µM | 0.72 | 2.66 µM | 0.821 | 0.589 µM | – | –
31 | YT (lymphoid neoplasm, suspension) | 0.401 | 0.175 µM | 0.331 | 0.118 µM | 0.992 | > 10 µM | 0.91 | > 1 µM | – | –
32 | ZR-75-30 (breast, adherent) | – | – | – | – | 0.955 | > 10 µM | – | – | 0.971 | > 10 µM
